Measurements as given in the supplement of paper PMC8728848.
The other results are listed elsewhere or left out.

Columns and labels:
Experiment in all cases: glycan array binding signal (z-score within array); higher = stronger binding
Conditions in all cases: glycan notation: IUPAC condensed, linker removed
[1] = target: Fuc(a1-2)[Gal(a1-3)]Gal(b1-4)GlcNAc(b1-2)Man(a1-3)[Fuc(a1-2)[Gal(a1-3)]Gal(b1-4)GlcNAc(b1-2)Man(a1-6)]Man(b1-4)GlcNAc(b1-4)GlcNAc
Method in brief: (§1)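 Columns mapping to the same glycan were averaged after glycan names were converted to IUPAC-condensed notation. The data come from 3228 arrays in the Consortium for Functional Glycomics database, limited to those with an available protein sequence. Binding is reported as a within-array Z-score averaged across arrays of one protein sequence and across linkers.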

[2] = target: Fuc(a1-2)[Gal(a1-3)]Gal(b1-4)GlcNAc(b1-2)Man(a1-3)[Fuc(a1-2)[Gal(a1-3)]Gal(b1-4)GlcNAc(b1-2)Man(a1-6)]Man(b1-4)GlcNAc(b1-4)[Fuc(a1-6)]GlcNAc
Method in brief: as §1

[3] = target: Fuc(a1-2)[Gal(a1-3)]Gal(b1-4)GlcNAc(b1-3)GalNAc
Method in brief: as §1

[4] = target: Fuc(a1-2)[Gal(a1-3)]Gal(b1-4)GlcNAc(b1-3)[Fuc(a1-2)[Gal(a1-3)]Gal(b1-4)GlcNAc(b1-6)]GalNAc
Method in brief: as §1

[5] = target: Fuc(a1-2)[Gal(a1-3)]Gal(b1-4)GlcNAc(b1-6)GalNAc
Method in brief: as §1

[6] = target: Fuc(a1-2)[Gal(a1-3)]Gal(b1-4)[Fuc(a1-3)]Glc
Method in brief: as §1

[7] = target: Fuc(a1-2)[Gal(a1-3)]Gal(b1-4)[Fuc(a1-3)]GlcNAc
Method in brief: as §1

[8] = target: Fuc(a1-2)[Gal(a1-3)]Gal(b1-4)[Fuc(a1-3)]GlcNAc(b1-3)GalNAc
Method in brief: as §1

[9] = target: Fuc(a1-2)[Gal(a1-4)]Gal(b1-4)GlcNAc
Method in brief: as §1

[10] = target: Fuc(a1-2)[GalNAc(a1-3)]Gal
Method in brief: as §1

[11] = target: Fuc(a1-2)[GalNAc(a1-3)]Gal(b1-3)GalNAc(a1-3)[Fuc(a1-2)]Gal(b1-4)GlcNAc
Method in brief: as §1

[12] = target: Fuc(a1-2)[GalNAc(a1-3)]Gal(b1-3)GalNAc(b1-3)Gal(a1-4)Gal(b1-4)Glc
Method in brief: as §1

[13] = target: Fuc(a1-2)[GalNAc(a1-3)]Gal(b1-3)GlcNAc
Method in brief: as §1

[14] = target: Fuc(a1-2)[GalNAc(a1-3)]Gal(b1-3)GlcNAc(b1-2)Man(a1-3)[Fuc(a1-2)[GalNAc(a1-3)]Gal(b1-3)GlcNAc(b1-2)Man(a1-6)]Man(b1-4)GlcNAc(b1-4)GlcNAc
Method in brief: as §1

[15] = target: Fuc(a1-2)[GalNAc(a1-3)]Gal(b1-3)GlcNAc(b1-2)Man(a1-3)[Fuc(a1-2)[GalNAc(a1-3)]Gal(b1-3)GlcNAc(b1-2)Man(a1-6)]Man(b1-4)GlcNAc(b1-4)[Fuc(a1-6)]GlcNAc
Method in brief: as §1

[16] = target: Fuc(a1-2)[GalNAc(a1-3)]Gal(b1-3)GlcNAc(b1-3)GalNAc
Method in brief: as §1

[17] = target: Fuc(a1-2)[GalNAc(a1-3)]Gal(b1-3)GlcNAc(b1-6)GalNAc
Method in brief: as §1

[18] = target: Fuc(a1-2)[GalNAc(a1-3)]Gal(b1-4)Glc
Method in brief: as §1

[19] = target: Fuc(a1-2)[GalNAc(a1-3)]Gal(b1-4)GlcNAc
Method in brief: as §1

[20] = target: Fuc(a1-2)[GalNAc(a1-3)]Gal(b1-4)GlcNAc(b1-2)Man
Method in brief: as §1

[21] = target: Fuc(a1-2)[GalNAc(a1-3)]Gal(b1-4)GlcNAc(b1-2)Man(a1-3)[Fuc(a1-2)[GalNAc(a1-3)]Gal(b1-4)GlcNAc(b1-2)Man(a1-6)]Man(b1-4)GlcNAc(b1-4)GlcNAc
Method in brief: as §1

[22] = target: Fuc(a1-2)[GalNAc(a1-3)]Gal(b1-4)GlcNAc(b1-2)Man(a1-3)[Fuc(a1-2)[GalNAc(a1-3)]Gal(b1-4)GlcNAc(b1-2)Man(a1-6)]Man(b1-4)GlcNAc(b1-4)[Fuc(a1-6)]GlcNAc
Method in brief: as §1

[23] = target: Fuc(a1-2)[GalNAc(a1-3)]Gal(b1-4)GlcNAc(b1-3)Gal(b1-4)GlcNAc
Method in brief: as §1

[24] = target: Fuc(a1-2)[GalNAc(a1-3)]Gal(b1-4)GlcNAc(b1-3)Gal(b1-4)GlcNAc(b1-3)Gal(b1-4)GlcNAc
Method in brief: as §1

[25] = target: Fuc(a1-2)[GalNAc(a1-3)]Gal(b1-4)GlcNAc(b1-3)GalNAc
Method in brief: as §1

[26] = target: Fuc(a1-2)[GalNAc(a1-3)]Gal(b1-4)GlcNAc(b1-3)[Fuc(a1-2)[GalNAc(a1-3)]Gal(b1-4)GlcNAc(b1-6)]GalNAc
Method in brief: as §1

[27] = target: Fuc(a1-2)[GalNAc(a1-3)]Gal(b1-4)GlcNAc(b1-6)GalNAc
Method in brief: as §1

[28] = target: Fuc(a1-2)[GalNAc(a1-3)]Gal(b1-4)[Fuc(a1-3)]GlcNAc
Method in brief: as §1

[29] = target: Fuc(a1-2)[GalNAc(a1-3)]Gal(b1-4)[Fuc(a1-3)]GlcNAc(b1-3)GalNAc
Method in brief: as §1

[30] = target: Fuc(a1-2)[GalNAc(a1-4)]Gal(b1-4)GlcNAc
Method in brief: as §1

[31] = target: Fuc(a1-2)[GalNAc(b1-3)]Gal
Method in brief: as §1

Fuc(a1-3)GlcNAc = target: Fuc(a1-3)GlcNAc
Method in brief: as §1

[32] = target: Fuc(a1-3)[Gal(b1-4)]Glc6S
Method in brief: as §1

[33] = target: Fuc(a1-3)[Gal(b1-4)]GlcNAc
Method in brief: as §1

[34] = target: Fuc(a1-3)[Gal(b1-4)]GlcNAc(b1-2)Man
Method in brief: as §1

[35] = target: Fuc(a1-3)[Gal(b1-4)]GlcNAc(b1-2)Man(a1-3)[Fuc(a1-3)[Gal(b1-4)]GlcNAc(b1-2)Man(a1-6)]Man(b1-4)GlcNAc(b1-4)GlcNAc
Method in brief: as §1

[36] = target: Fuc(a1-3)[Gal(b1-4)]GlcNAc(b1-2)Man(a1-3)[Fuc(a1-3)[Gal(b1-4)]GlcNAc(b1-2)Man(a1-6)]Man(b1-4)GlcNAc(b1-4)[Fuc(a1-6)]GlcNAc
Method in brief: as §1

B1: AFL5 (Aspergillus fumigatus), Q4WB00 (protein)
chain: MDNFMEMTKKLGHQPELLRLRALDATYDDALEGKLVVAPLDMSEPGKKILDSGTADGTWLRNVRSKQSVPHDYYGSDVEGELFPKDPDGITYFAHSFKDPWPQQYLGFFDLVHIRGSLAGSAPEGPAPVIQNLTTLLKPGGWVQLMEMNAFSPPPNGPAMTDFAKMASEMFTGIGVGDFANNNKSMLEDAGLKNVQEKRVIVNLGKKAKPELHDQSIHGVTGPIVPLTSVARTVKSSFTGEQLDALPARVKEELETEGGQVEMIIAFGQKA
[1]
  glycan array binding signal (z-score): 0.381
[2]
  glycan array binding signal (z-score): -0.46
[3]
  glycan array binding signal (z-score): -0.042
[4]
  glycan array binding signal (z-score): -0.032
[5]
  glycan array binding signal (z-score): -0.375
[6]
  glycan array binding signal (z-score): -0.446
[7]
  glycan array binding signal (z-score): -0.109
[8]
  glycan array binding signal (z-score): 0.71
[9]
  glycan array binding signal (z-score): 0.73
[10]
  glycan array binding signal (z-score): -0.215
[11]
  glycan array binding signal (z-score): 0.569
[12]
  glycan array binding signal (z-score): 0.018
[13]
  glycan array binding signal (z-score): 0.234
[14]
  glycan array binding signal (z-score): -0.628
[15]
  glycan array binding signal (z-score): -0.015
[16]
  glycan array binding signal (z-score): -0.253
[17]
  glycan array binding signal (z-score): -0.237
[18]
  glycan array binding signal (z-score): 0.18
[19]
  glycan array binding signal (z-score): -0.059
[20]
  glycan array binding signal (z-score): -0.322
[21]
  glycan array binding signal (z-score): 0.442
[22]
  glycan array binding signal (z-score): 0.578
[23]
  glycan array binding signal (z-score): -0.015
[24]
  glycan array binding signal (z-score): 0.067
[25]
  glycan array binding signal (z-score): -0.267
[26]
  glycan array binding signal (z-score): 0.172
[27]
  glycan array binding signal (z-score): -0.529
[28]
  glycan array binding signal (z-score): -0.396
[29]
  glycan array binding signal (z-score): -0.259
[30]
  glycan array binding signal (z-score): -0.503
[31]
  glycan array binding signal (z-score): -0.258
Fuc(a1-3)GlcNAc
  glycan array binding signal (z-score): -0.058
[32]
  glycan array binding signal (z-score): 0.457
[33]
  glycan array binding signal (z-score): -0.414
[34]
  glycan array binding signal (z-score): -0.758
[35]
  glycan array binding signal (z-score): 0.048
[36]
  glycan array binding signal (z-score): 0.779
